This is an account of results in patent publication US12551573B2, “Compositions and methods for the targeting of PCSK9” (Scribe Therapeutics Inc., priority 2022, dated 2026).

First the molecules themselves.
B1: DOMAIN_3803 (protein, listed as Macaca mulatta)
chain: MNMEGLVMFQDLFIHFSQEEWECLDAAQKDLYRDVMMENYSSLVSLGLCIPKPDVISLLEQGKEPWMVSRDVLGGWCPDSE
B2: DOMAIN_4030 (protein, listed as Macaca mulatta)
chain: MSLGSELFRDVAIVFSQEEWQCLAPAQRDLYRDVMLETYNNLVSLGLAISKPDVISFLEQGKEPWMVERVVSGGLCPVLES
B3: DOMAIN_4184 (protein, listed as Macaca mulatta)
chain: MVTFEDVAVHFTKTEWTGLSPAQRALYRSVMLENFGNLTALGYPVPKPALISLLEGGDMAWGLEAQDDAPAERTKNICKGR
B4: DOMAIN_4185 (protein, listed as Macaca mulatta)
chain: MVTFEDVAVHFTKTEWTGLSPAQRALYRSVMLENFGNLTALGYPVPKPALISLLEGGDMAWGLEAQDDAPAERTKNICKVI
B5: DOMAIN_4394 (protein, listed as Callithrix sp.)
chain: PVRGPGEARPSRKRGRRPRALKFVDVAVYFSSEEWGCLRPAQRALYRDVMRETYGHLGALGCAGPKPALISWLERNTDDWE
B6: DOMAIN_4129 (protein, listed as Macaca mulatta)
chain: MMTAVSLTTRSQESVAFEDVAVYFTTKEWAIMVPAERALYRDVMLENYEAVAFVVPPTSKPALVSHLEQGKESCFIRPQGV
B7: DOMAIN_4036 (protein, listed as Macaca mulatta)
chain: MNVEVVKVMPQDLVTFKDVAIDFSQEEWQWMNPAQKHLYRSMMLENYQSLVSLGLCISKPCVISLLEQGREPWEMTSEMTR
B8: DOMAIN_4463 (protein, listed as Callithrix sp.)
chain: MLQTAWPQRLSRNLWFQESVAFEDVAVYFTQNQWASLDPAQRALYREVMLENYANVTSLVAFPFPKPALISHLEKGEAPWG
B9: DOMAIN_4425 (protein, listed as Callithrix sp.)
chain: TMTTVSSTARPQESVAFDDVAVYFTKKEWAIMVPDQRALYRDVMLENYEAVAFVVPPTSKPALISHLEQGKEPCFTQPQGV
B10: DOMAIN_19804 (protein, listed as Callorhinus ursinus)
chain: QAEVTFEDVAVLFSREEWGRLGPAQRGLYRDVMLETYRNLVSLGAGPAGPKPGVITQLERGDEPWVLDAQGAKGKERLRVS
B11: DOMAIN_4199 (protein, listed as Macaca mulatta)
chain: MELLSFEDVAMYFTREEWGHLDWGQKDLYRDVMLENYRNMVLLGFQFPKPEVICQLENWDEQWILDLPRAGSRKASGSACP
B12: DOMAIN_4046 (protein, listed as Macaca mulatta)
chain: MATALTDPAQVSVTFDDVAVTFTQEEWGQLDLAQRTLYQEVMLENCGLLVSLGCPVPRPELIYHLEHGQEPWTRKEDLSQD
B13: DOMAIN_4126 (protein, listed as Macaca mulatta)
chain: MLQTAWRQEPVTFEDVAVYFTQNEWASLDSVQRALYREVMLENYANVASLAFPFTTPVLVSQLEQGELPWGLDPWEPMGRE
B14: DOMAIN_4461 (protein, listed as Callithrix sp.)
chain: MLQTAWRQEPVTFEDVAVYFTQNEWTSLDPVQRALYREVMLENYANVASLAFPFTTPVLVSQLEQGERPWGLDPWEPVGRE

The subject of the assay is HBEGF locus. Format: cell-based, human. Particulars: high-throughput screen of dXR repression of the HBEGF gene; change in abundance of each domain in the library before and after diphtheria toxin selection.
As for B1, the “Log2 (fold change)” value is recorded as 3.0165.

With B2, the “Log2 (fold change)” value is 2.5274.

Consider B3, for which the “Log2 (fold change)” value turned out to be 3.2397.

B4: the “Log2 (fold change)” value amounted to 2.9116.

With B5, the “Log2 (fold change)” value was determined as 3.8103.

Regarding B6, the “Log2 (fold change)” value turned out to be 3.7382.

As for B7, the “Log2 (fold change)” value came to 2.7725.

For B8, the “Log2 (fold change)” value is given as 2.9717.

Turning to B9, the “Log2 (fold change)” value amounted to 2.9741.

On to B10, for which the “Log2 (fold change)” value came out at 3.8217.

In the case of B11, the “Log2 (fold change)” value came to 2.6844.

As to B12, the “Log2 (fold change)” value is reported as 2.7847.

B13: the “Log2 (fold change)” value stood at 3.529.

Take B14: the “Log2 (fold change)” value was 3.0094.
